B1: LINE1-mini (parent)
chain: GGCAGAGCUCAACACAGCGUGGCAAAGUGGCUGUGGCUAGACUGCC

Read counts are not given, so values of variants with three or more changes are uncertain.

In this data set the parent is B1. In words: self-cleavage, relative activity (ratio to wild type); higher = more cleavage; in vitro, sequencing; the parent is a self-cleaving ribozyme.
Turning to GGCAGAGCUCAGCACAGCGUGGCAUCGUCGCUGUGGCUAGACUGCC [A12G A25U A26C G29C], the self-cleavage came out at 0.01. Take GGCAGAGCUCACCACAGCCUGGCAAAGUGGGUGUGGCUAGACUGCC [A12C G19C C31G]: the self-cleavage was found to be 0.04. In the case of GGCAGAGCUCACCACAACGUGACAAUGUGGAUGUGGCUAGACUGCC [A12C G17A G22A A26U C31A], the self-cleavage amounted to 0.04.

For GGCAGAGCUCAGCACUGAGUGGCAAAGUGGCUUUGGCUAGACUGCC [A12G A16U C18A G33U], the self-cleavage was found to be 0.04. As for GGCAGAGCUCACGACAGCGUGGCAAAGUGGCUGUGGAUAGACUGCC [A12C C13G C37A], the self-cleavage is 0.01. For GGCAGAGCUCAGCACAGCGUGGCAAAGUGGCUGUGGCUUGUCUGCC [A12G A39U A41U] the value was 0.13; for GGCAGAGCUCACCAAAGCGUUGCAAAGUGGCUGUGGCUAGACGGCA [A12C C15A G21U U43G C46A], 0.

As to GGCAGAGCUCACCACAGCGGGGCAAAGUGGCUGUUGCUAGACUCCC [A12C U20G G35U G44C], the self-cleavage amounted to 0.01.

For the variant GGCAGAGCUCACUACAGCGUGGCAAAGUGGGUUUGGCUAGACUGCC [A12C C13U C31G G33U], the self-cleavage worked out at 0.01.

In the case of GGCAGAGCUCAGAACAGCGUGGCAAAGUGGCUGUGGCUAGACUGGC [A12G C13A C45G], the self-cleavage came to 0.03. For the variant GGCAGAGCUCACCACAGCGUGGCAAAUUGGCUUUGGUUAGACUGCC [A12C G27U G33U C37U], the self-cleavage came out at 0. Turning to GGCAGAGCUCACCACAGCGUGUAAAUGUGGCUGUGGCUAGCCUGCU [A12C G22U C23A A26U A41C C46U], the self-cleavage worked out at 0.03.

As for GGCAGAGCUCACCACAGCGUGGCAAAAUGGCUGUGGCUAGCAUGCC [A12C G27A A41C C42A], the self-cleavage was 0. For GGCAGAGCUCACCACAGCGUAGCAAAGUGGCUGUGGCUAGACUGAC [A12C G21A C45A] the value was 0; for GGCAGAGCUCAGGACAGCGUGCCAAAGUAGCUGUGACUAGACUGCC [A12G C13G G22C G29A G36A], 0.06; for GGCAGAGCUCACCACAGCAUACCAAAGUGGCUGUGGCUUGACUGCC [A12C G19A G21A G22C A39U], 0.01.

GGCAGAGCUCACCACAGCGUGGCAAAGAGACUGUGGCUAGCCUGCC [A12C U28A G30A A41C]: the self-cleavage was determined as 0. On to GGCAGAGCUCACCACAGCGUAGCAAAGUGGCUGUGAAUAGACUGCC [A12C G21A G36A C37A], for which the self-cleavage is 0.12. As to GGCAGAGCUCACCACAGCGUGGGAAAGUGGCUGUGGUUAGACUGCC [A12C C23G C37U], the self-cleavage is 0.02. With GGCAGAGCUCAGCACAGCGUGGCAAAGUGGUUGUGACUAGACUGCC [A12G C31U G36A], the self-cleavage came to 0.03. Turning to GGCAGAGCUCAGCACAGCGUGGCAAAGUGGUUGUGUCUAGACUGCC [A12G C31U G36U], the self-cleavage worked out at 0.05. As to GGCAGAGCUCAGCACAGCGUGGCAGAGUGGCUGUGGCUAGUCUGCC [A12G A25G A41U], the self-cleavage amounted to 0.03. For GGCAGAGCUCACCACAGCGUGUCAAGGUCGCUGUGGCUAGACUGCA [A12C G22U A26G G29C C46A] the value was 0; for GGCAGAGCUCACCACAGCGUGGCAAAGUGGCUGUGGUUGGACUGCC [A12C C37U A39G], 0. Take GGCAGAGCUCAGCACAGCGUGGCAUAGUGGCUGUGGCUAUACUGCC [A12G A25U G40U]: the self-cleavage came to 0.03. For GGCAGAGCUCAGCACAGGGUGGCAAAGUGGCUGUGGUUAGACUGCC [A12G C18G C37U], the self-cleavage came to 0.03. For GGCAGAGCUCAGCACAGGGUGGCAAAGUGGCUGUGGCUAGACCGCC [A12G C18G U43C] the value was 0.02; for GGCAGAGCUCACCACAUCGUGGCAAAGUGGCUGUGGCUAAACUGCC [A12C G17U G40A], 0.02; for GGCAGAGCUCAGCACAGAGUGGCAAAGUGGCUGUGGCAAGACUGCC [A12G C18A U38A], 0.04. In the case of GGCAGAGCUCACCACAGCGUGGCAAAGUGGCUGUGUCUAUACUGCC [A12C G36U G40U], the self-cleavage was 0.06. On to GGCAGAGCUCACCAUAGCGUGCCAAAGUGGCUGUGGCUAGACUGAC [A12C C15U G22C C45A], for which the self-cleavage was found to be 0.03. For GGCAGAGCUCACCACAGCGUGGCAAAGUGGCAGUUGCUAGAGUGCC [A12C U32A G35U C42G], the self-cleavage was determined as 0.02.

Take GGCAGAGCUCACCACAGCCUGGCAAAGUGGCUGUGGCUAGAUUGCC [A12C G19C C42U]: the self-cleavage came out at 0. In the case of GGCAGAGCUCAGCACAGAGUGACAAACUGGCUGUGGCUAGAUUGCC [A12G C18A G22A G27C C42U], the self-cleavage was 0.01. Consider GGCAGAGCUCACGACAGCGUGGCAAAGUGGCUGUGGCUCGACUGCC [A12C C13G A39C], for which the self-cleavage stood at 0. Regarding GGCAGAGCUCAGCACAGUAUGGCAAAGUGGCUGUGGCUAGACUGCC [A12G C18U G19A], the self-cleavage stood at 0.03. For GGCAGAGCUCACCACAGCGUGGCAAAGUGGAUGUGGCUAUACUGCC [A12C C31A G40U] the value was 0.01; for GGCAGAGCUCACCACAGCGUUGUAACGUGGCUGUGGCUAGACUGCC [A12C G21U C23U A26C], 0.03; for GGCAGAGCUCACCACAACGUGGCAACGCGGCUGUCGAUAGACUGCC [A12C G17A A26C U28C G35C C37A], 0.02. For GGCAGAGCUCACCAAAGCGUGGCAAAGUGGCUGUUGCUAAACUGCC [A12C C15A G35U G40A] the value was 0.03; for GGCAGAGCUCAGCAUAGCGUGGCAAAGUGGAUGUGGUUACACUGCC [A12G C15U C31A C37U G40C], 0.03. Consider GGCAGAGCUCACCACAGCGGGGCGAAAUGGCUGUGGCUAGACUGCC [A12C U20G A24G G27A], for which the self-cleavage is 0.02. For GGCAGAGCUCAGAACAGCGUGGCAAAGUGGCUGUGGCUAGAUUUCC [A12G C13A C42U G44U] the value was 0.05; for GGCAGAGCUCAGUACAGCGUGGCAAAGUGGCUGUUGCUAGACUGCC [A12G C13U G35U], 0.02; for GGCAGAGCUCACCACAGGGUGGCAAAGUGGCUGUGGCUUAACUCCC [A12C C18G A39U G40A G44C], 0. As for GGCAGAGCUCAGCUCAGCGUGGCAAAGUGGCUGUUGCUAGACUGCC [A12G A14U G35U], the self-cleavage was 0.01. On to GGCAGAGCUCAGCACAGAGUGGCAAAGUGGAUGUGCCUAGACUGCC [A12G C18A C31A G36C], for which the self-cleavage came out at 0.08. For GGCAGAGCUCACCACAGCGUGGCAAAAUGGCUGUGCCUAGACUGCC [A12C G27A G36C] the value was 0; for GGCAGAGCUCAGCAGAGCGUGGCAUAUUGGCUGUGGCUAGACUGCC [A12G C15G A25U G27U], 0.01; for GGCAGAGCUCAGGAUAUCGUCGCGAAGUGGCUGUGGCUAGACUGCC [A12G C13G C15U G17U G21C A24G], 0.05. For GGCAGAGCUCACCACAGCGUGCCAAAGUGACUGUGUUUAGACUGCA [A12C G22C G30A G36U C37U C46A] the value was 0.03. For GGCAGAGCUCAGCACAGCGUGGCAACGUGGCUGUGGCUAUACUGAC [A12G A26C G40U C45A], the self-cleavage was found to be 0.04. In the case of GGCAGAGCUCACCAUAGCGUGGCAAAGUGGCUGUUGCUAGACUGCC [A12C C15U G35U], the self-cleavage was found to be 0.02. For GGCAGAGCUCACCACAGCGUGGCAAACUGGGUGUGGCUAGACUGCC [A12C G27C C31G] the value was 0; for GGCAGAGCUCAGCACGGCGUGGCAAAGUGGCUGUGGCUCGACUGCC [A12G A16G A39C], 0. As to GGCAGAGCUCACCACAGCGGGGCCUAGUGGCUGUGGCUAGACUGCC [A12C U20G A24C A25U], the self-cleavage was 0.01.

These data come from the RNAGym collection of RNA variant scans (doi:10.7554/elife.90254).
